Measurements: the supplement of paper PMC12645437, “Orthogonal IMiD-Degron Pairs Induce Selective Protein Degradation in Cells” (ACS Chemical Biology, 2025)
The other results are listed elsewhere or left out.

Biological target: no compound (DMSO)
Assay: log2 fold change of degron read counts, EGFP-low vs EGFP+ sorted cells; higher = lower degron-EGFP level without compound (poor expression or instability)
Details: compound: DMSO control; 18 h
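Note: jurkat cells carrying a lentiviral library of mutant zinc finger degrons fused to EGFP plus mCherry, mCherry+ cells FACS sorted, degron abundance counted by next-generation sequencing.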

**Q.** With FYCEQCGAAFTQKGNLLRHIKL as the sequence, how does the “log2 fold change of degron read counts” value read?
**A.** -1.23

**Q.** With FNCNQCGHYFTQKGNLLRHIKL as the sequence, how does the “log2 fold change of degron read counts” value read?
**A.** 1.17

**Q.** How did the “log2 fold change of degron read counts” value turn out when FACPICGRYFTQKGNLLRHIKL was run?
**A.** 0.415

**Q.** Which “log2 fold change of degron read counts” value does the source give for FNCEICGHPFTQKGNLLRHIKL here?
**A.** -0.62

**Q.** With FECPQCGAHFTQKGNLLRHIKL as the sequence, how does the “log2 fold change of degron read counts” value read?
**A.** -0.963

**Q.** How did the “log2 fold change of degron read counts” value turn out when FTCDICGAIFTQKGNLLRHIKL was run?
**A.** -1.17

**Q.** FTCPICGHCFTQKGNLLRHIKL was tested. Which “log2 fold change of degron read counts” value did it give?
**A.** 0.0319

**Q.** With FSCEICGRMFTQKGNLLRHIKL as the sequence, how does the “log2 fold change of degron read counts” value read?
**A.** -0.954

**Q.** For FSCEICGRAFTQKGNLLRHIKL, which “log2 fold change of degron read counts” value is on record?
**A.** -2.91

**Q.** With FYCDVCGASFTQKGNLLRHIKL as the sequence, how does the “log2 fold change of degron read counts” value read?
**A.** -1.01

**Q.** With LKCEICGFNCTQKGNLLRHIKL as the sequence, how does the “log2 fold change of degron read counts” value read?
**A.** -0.439

**Q.** FVCPVCGAMFTQKGNLLRHIKL was tested. Which “log2 fold change of degron read counts” value did it give?
**A.** 0.195

**Q.** FDCEVCGAKFTQKGNLLRHIKL was tested. Which “log2 fold change of degron read counts” value did it give?
**A.** -1.52

**Q.** Which “log2 fold change of degron read counts” value does the source give for FMCEICGHRFTQKGNLLRHIKL here?
**A.** -1.6

**Q.** FCCPVCGASFTQKGNLLRHIKL was tested. Which “log2 fold change of degron read counts” value did it give?
**A.** -0.146

**Q.** Which “log2 fold change of degron read counts” value does the source give for FDCDQCGAGFTQKGNLLRHIKL here?
**A.** -1.3

**Q.** FNCEVCGAGFTQKGNLLRHIKL was tested. Which “log2 fold change of degron read counts” value did it give?
**A.** -1.99

**Q.** How did the “log2 fold change of degron read counts” value turn out when FHCSVCGHNFTQKGNLLRHIKL was run?
**A.** -0.423

**Q.** How did the “log2 fold change of degron read counts” value turn out when FNCEICGHWFTQKGNLLRHIKL was run?
**A.** 0.472

**Q.** How did the “log2 fold change of degron read counts” value turn out when FLCPICGAVFTQKGNLLRHIKL was run?
**A.** -0.241

**Q.** How did the “log2 fold change of degron read counts” value turn out when FSCDQCGALFTQKGNLLRHIKL was run?
**A.** -1.34

**Q.** With LKCPICGFECTQKGNLLRHIKL as the sequence, how does the “log2 fold change of degron read counts” value read?
**A.** -0.0518

**Q.** For FKCPICGHHFTQKGNLLRHIKL, which “log2 fold change of degron read counts” value is on record?
**A.** -0.563

**Q.** Which “log2 fold change of degron read counts” value does the source give for FHCEVCGASFTQKGNLLRHIKL here?
**A.** -1.85

**Q.** LYCPICGFWCTQKGNLLRHIKL was tested. Which “log2 fold change of degron read counts” value did it give?
**A.** 1.99

**Q.** Which “log2 fold change of degron read counts” value does the source give for FQCPICGHCFTQKGNLLRHIKL here?
**A.** -0.0243

**Q.** Which “log2 fold change of degron read counts” value does the source give for FCCPQCGARFTQKGNLLRHIKL here?
**A.** -0.514

**Q.** Which “log2 fold change of degron read counts” value does the source give for FICPQCGAYFTQKGNLLRHIKL here?
**A.** 1.19

**Q.** Which “log2 fold change of degron read counts” value does the source give for FRCPQCGALFTQKGNLLRHIKL here?
**A.** -0.023

**Q.** For LYCEICGFMCTQKGNLLRHIKL, which “log2 fold change of degron read counts” value is on record?
**A.** 0.836

**Q.** Which “log2 fold change of degron read counts” value does the source give for FMCNVCGAVFTQKGNLLRHIKL here?
**A.** -0.892

**Q.** How did the “log2 fold change of degron read counts” value turn out when FICPICGAFFTQKGNLLRHIKL was run?
**A.** 0.581
